Source: paper PMC4336329 (PLoS ONE, 2015)
Among all 310,000 compounds or so, about 2,200 (0.71%) showed an effect of 50% or more. The effect is printed as a negative number. Some of the results follow.

What follows are compounds tested against human ether-à-go-go-related gene (hERG) potassium channel (human, UniProt Q12809) (assay: primary screen, population patch clamp on CHO cells stably expressing hERG).
Sequence of human ether-à-go-go-related gene (hERG) potassium channel (Q12809 whole entry, looked up): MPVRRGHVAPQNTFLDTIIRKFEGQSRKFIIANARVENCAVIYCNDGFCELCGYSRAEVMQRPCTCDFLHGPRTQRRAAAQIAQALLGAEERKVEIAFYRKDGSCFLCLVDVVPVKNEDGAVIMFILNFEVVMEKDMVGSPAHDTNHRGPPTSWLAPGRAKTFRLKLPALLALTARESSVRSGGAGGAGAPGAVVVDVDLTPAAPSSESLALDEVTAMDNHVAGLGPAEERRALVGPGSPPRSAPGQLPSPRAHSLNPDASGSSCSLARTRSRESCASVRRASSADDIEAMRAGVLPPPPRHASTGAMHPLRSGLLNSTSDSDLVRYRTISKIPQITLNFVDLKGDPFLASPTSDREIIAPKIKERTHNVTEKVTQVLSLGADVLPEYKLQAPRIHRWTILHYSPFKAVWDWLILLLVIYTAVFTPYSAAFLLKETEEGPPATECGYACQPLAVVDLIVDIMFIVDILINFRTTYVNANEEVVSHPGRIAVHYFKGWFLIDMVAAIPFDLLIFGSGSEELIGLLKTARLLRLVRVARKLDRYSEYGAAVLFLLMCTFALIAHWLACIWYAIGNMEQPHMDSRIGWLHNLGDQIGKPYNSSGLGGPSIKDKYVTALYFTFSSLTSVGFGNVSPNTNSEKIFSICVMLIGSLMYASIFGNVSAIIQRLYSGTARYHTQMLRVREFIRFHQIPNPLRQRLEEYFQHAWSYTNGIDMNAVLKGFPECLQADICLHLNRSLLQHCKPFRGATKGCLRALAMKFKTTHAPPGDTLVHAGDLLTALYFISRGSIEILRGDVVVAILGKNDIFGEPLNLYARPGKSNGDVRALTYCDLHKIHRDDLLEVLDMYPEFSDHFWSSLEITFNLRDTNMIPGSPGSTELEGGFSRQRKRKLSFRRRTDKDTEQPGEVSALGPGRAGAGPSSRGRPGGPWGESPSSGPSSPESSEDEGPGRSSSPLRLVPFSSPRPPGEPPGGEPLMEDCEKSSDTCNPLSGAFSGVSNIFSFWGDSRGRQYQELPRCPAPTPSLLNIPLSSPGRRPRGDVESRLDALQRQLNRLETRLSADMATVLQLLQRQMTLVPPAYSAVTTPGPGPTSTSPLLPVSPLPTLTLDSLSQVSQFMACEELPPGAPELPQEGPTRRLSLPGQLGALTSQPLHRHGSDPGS

SMILES	hERG current change (%, negative = inhibition) at 1uM [%]
Cc1ccc(CN2CCC(C(=O)Nc3cccc(-c4cccc(F)c4)c3)CC2)o1	-28.7
CCc1ccc(NC2CC(=O)N(c3ccc(OC)cc3OC)C2=O)cc1 (stereo not shown)	8.18
CC(=O)Nc1ccc(SCC(=O)c2cc(C)n(Cc3cccs3)c2C)cc1	6.82
Cc1cc(-n2c(C)c3c(C)nnc(C)c3c2C)ccc1N	13.9
NC(=S)N/N=C/C=C/c1ccccc1	5.47
CCOc1cc(/C=N/NC(=O)C(OC)c2ccccc2)ccc1O (stereo not shown)	12.4
Cn1c(=O)cc(SCC(=O)NCCCN2CCOCC2)c2ccccc21	-3.66
O=C(CSCc1ccc(Br)cc1)Nc1ccc(S(=O)(=O)N2CCOCC2)cc1	11.5
O=C(O)Cc1nc2nc3c(c(=O)n2[nH]1)CCCC3	17.8
Cc1ccc(NC(=O)CCC(=O)OCC(F)(F)C(F)F)cc1	17.3
CC(C)[C@H](NC(=O)N1CCn2c1nc1ccccc12)C(=O)N[C@@H](Cc1ccccc1)C(=O)O	11
CC(NC(=O)c1ccc(Br)o1)c1ccccc1 (stereo not shown)	3.01
COc1ccccc1CNc1ccc2nnc(CCNC(=O)c3ccc(C)cc3)n2n1	2.15
CCc1cccc(NC(=O)c2ccc(NS(=O)(=O)c3c(C)noc3C)cc2)c1	-6.03
Cc1c(NS(=O)(=O)c2ccccc2F)c(=O)n(-c2ccccc2)n1C	8.14
COc1c2c(cc3ccc(=O)oc13)CCO2	13.8
O=C(CCN1C(=O)/C(=C/c2ccccc2)SC1=S)NC1CCS(=O)(=O)C1 (stereo not shown)	9.25
Cc1cc(C)nc(NS(=O)(=O)c2ccc(N/C=C/C(=O)c3ccc(Cl)c(Cl)c3)cc2)n1	18.7
Cc1cccc(OCCCC(=O)NC(C)c2ccccc2)c1 (stereo not shown)	9.86
Cc1ccc(S(=O)(=O)CCc2nnc(N)s2)cc1	16.5
O=C(CCSc1nc(-c2ccc3c(c2)OCO3)cc(C(F)(F)F)n1)NCc1ccco1	8.5
OC(CN1CCOCC1)CN1CCOCC1	7.81

SMILES	hERG current change (%, negative = inhibition) at 1uM [%]
Cc1ccc(C(=O)N2CCN3C(=O)c4ccccc4C23c2ccccc2)cc1 (stereo not shown)	11.2
COc1ccc2c(c1OC)C[N+]1([O-])CCc3cc4c(cc3C1C2)OCO4 (stereo not shown)	7.22
Cc1cnc(C(=O)Nc2ccc(-n3cnnn3)cc2)cn1	6.41
Cc1ccsc1/C=N\NC(=O)CC(=O)NCc1ccccc1	13.8
CC(=O)Nc1ccccc1C(=O)N1CCN(Cc2ccccc2)CC1	9.12
O=c1c2ccccc2oc2ccc(NCCCN3CCOCC3)cc12	-3.35
COc1cccc(-c2ccc(=O)n(CC(=O)Nc3ccc(C(=O)N4CCCC4)cc3)n2)c1	0.542
Cc1cccc2c(=O)c(C(=O)N3CCCCCC3)c[nH]c12	1.15
CCc1ccc(C(=O)NNC(=O)c2n[nH]c(=O)c3ccccc23)cc1	12.7
O=C(CCCN=C1NS(=O)(=O)c2ccccc21)OCC(=O)c1ccc(F)cc1	-3.82
Nc1c(C(=O)NC23CC4CC(CC(C4)C2)C3)sc2nc3c(c(C(F)(F)F)c12)CCC3	11.2
C=CCN1C(=Nc2cccnc2)SCC1(O)c1ccc(C)cc1 (stereo not shown)	15
Cc1ccc(NC(=O)/C(=C\c2cccnc2)NC(=O)c2ccco2)cc1	0.391
CN(C)S(=O)(=O)c1ccc(N2CCCC2)c(C(=O)NNC(=O)COc2cccc(F)c2)c1	3.37
CC(C)(C)C1=Nn2c(nnc2-c2n[nH]c3c2CCC3)SC1	-0.697
O=C(NCc1ccc2c(c1)OCO2)c1ccc(S(=O)(=O)NCC2CCCO2)cc1 (stereo not shown)	2.21
O=C(CSc1nnc(-c2ccc(C(F)(F)F)cn2)o1)Nc1cccc(Cl)c1	9.82
Nn1c(SC/C=C/c2ccccc2)nnc1-c1ccncc1	3.32
Cc1cc(OCC(=O)Nc2ccc(CN3CCOCC3)cc2)c2c(C)cc(=O)oc2c1	11.8
NC(=O)COC(=O)c1cc(-c2cccs2)nn1-c1ccccc1	9.43
Cc1cccc(NC(=O)CSCC(=O)N2CCN(C(=O)c3ccco3)CC2)c1	0.116
CCN(CC)S(=O)(=O)N1CCC(C(=O)NCC2COc3ccccc3O2)CC1 (stereo not shown)	-2.04

SMILES	hERG current change (%, negative = inhibition) at 1uM [%]
O=C(Cc1ccccc1[N+](=O)[O-])Nc1ccccc1C(=O)N1CCCC1	7.22
O=C(Nc1ccccc1F)Nc1cccc2ccc(O)cc12	11.7
C/C(CC(=O)Nc1ccc(N(C)C)cc1)=N\NC(=O)C(=O)NCc1ccccc1	14.8
Cc1ccc(NCC(=O)N/N=C/c2c[nH]c3ccccc23)cc1	19.9
COc1ccccc1-n1c([S-])c(C(=O)Nc2ccccc2C(F)(F)F)[n+]2ccc(C(=O)NCCO)cc12	12.9
O=C(Nc1ccc2c(c1)OCCO2)C1CCN(C(=O)c2ccc([N+](=O)[O-])cc2)CC1	-16.3
CC(=O)N1c2ccc(S(=O)(=O)N3CCC(C(=O)Nc4cc(C)cc(C)c4)CC3)cc2CC1C (stereo not shown)	8.12
Cc1cccc(CSCCNC(=O)c2ccc(CN3CCOCC3)cc2)c1	0.897
COc1ccc(/C=N\NC(=O)CCc2c(C)n[nH]c2C)c(OC)c1OC	19.5
CCc1cc(=O)oc2cc(OCC=C(C)C)ccc12	9.72
COc1ccc2cc(C(=O)C3CCCN(C(=O)/C=C/c4ccccn4)C3)ccc2c1 (stereo not shown)	4.07
COc1ccc2oc(=O)c(C(=O)N3CCCC3)cc2c1	10.9
COc1ccc(-c2nnc(SCC(=O)c3ccc[nH]3)n2-c2ccccc2)cc1	8.98
COc1cc(N(C)C)c([N+](=O)[O-])cc1C(=O)NC(C)CNc1ccc([N+](=O)[O-])cc1Cl (stereo not shown)	13.4
COc1ccc(NC(=O)C(=O)NCC2CCCN2S(=O)(=O)c2ccc(C)cc2)cc1 (stereo not shown)	14.9
CC(=O)c1ccc(C(=O)N2CCc3c([nH]c4ccccc34)C2c2ccccn2)s1 (stereo not shown)	6.34
O=c1[nH]c(O)c(/C=C2\C=NN=C2c2ccccc2)c(=O)[nH]1	6.55
Cc1onc(-c2ccccc2)c1C(=O)N1CCOCC1	2.95
CC1CCN(CCCNC(=O)c2cc3sccc3n2C)CC1	-23.6
CC(C)C12CN3CCN(CC(C3)C1O)C2 (stereo not shown)	5.46
Cc1ccc(NC(=O)CN(C)CCOc2ccccc2)c([N+](=O)[O-])c1	15.7
C/C=C(\C)C(=O)NCCN1C2=NC[C@H](Cc3ccccc3)N2C[C@H]1Cc1ccc(O)cc1	6.68

SMILES	hERG current change (%, negative = inhibition) at 1uM [%]
CCCC(=O)Nc1nnc(SCC(=O)NC2CC2)s1	16.5
COc1cccc(CN(C)C(=O)c2cccc(OC3CCN(C4CCCC4)CC3)c2)c1	-0.752
CN(C)/C=C1/OC(=O)C(C#N)=C1c1ccc(Cl)cc1	10.7
COc1cc(NC(=O)CCN2CCN(CCO)CC2)cc(OC)c1	7.44
COc1cccc(/C=C/C(=O)Nc2ccc(OC)nc2)c1	-0.476
Cc1cccc(-n2cc(CNCCc3nc(C)cc(C)n3)c(-c3cccc(F)c3)n2)c1	3.59
O=C(CCC(=O)N1CCSc2ccccc21)NCc1cccc(Br)c1	0.3
C=CCN(c1ccc(C(=O)NCCSc2ccccc2)cc1)S(C)(=O)=O	8.81
Cn1nccc1NC(=O)c1nccnc1C(=O)O	8.5
Cc1occc1C(=O)NCc1cccs1	-9.01
CC(C)n1ncc2c(C(=O)Nc3ccc(CC#N)cc3)cc(C3CC3)nc21	8.76
COc1cc(/C=N/NC(=O)CCn2nnc3ccccc32)ccc1O	14.9
COc1ccccc1NC(=O)c1cnc(SCC(=O)NCC2CCCO2)n(C)c1=O (stereo not shown)	-0.498
Cc1ccsc1CNCCc1ccc(F)cc1	5.17
COc1ccc(CN2CCNC(=O)C2CC(=O)NCc2cn[nH]c2-c2ccccc2)c(F)c1 (stereo not shown)	-5.27
CCCCOc1ccc(C(=O)NCC(=O)OC2CCOC2=O)cc1 (stereo not shown)	5.23
CCOC(=O)c1c(NC(=O)CN2C(=O)NC3(CCCC3)C2=O)sc(C)c1CC	0.638
CSc1ncccc1C(=O)NC1CCN(Cc2ccccc2)CC1	3.68
COC(=O)C1CSC(C(=O)OC)N1C(=O)Nc1ccc(Cl)cc1 (stereo not shown)	10.2
Cc1ccccc1OCC(=O)N(Cc1ccc(N(C)C)cc1)C1CCS(=O)(=O)C1 (stereo not shown)	7.63
COc1ccc(C2=NN(S(=O)(=O)c3ccccc3)C(c3ccccc3)C2)cc1 (stereo not shown)	16.2
CN(Cc1cccnc1)Cc1cn[nH]c1-c1ccc(-c2ccccc2)cc1	-2.25
